Consider 56 compounds from PMC4336329 (PLoS ONE, 2015).

Molecules are shown by their SMILES. Hit rate of the full screen: of about 310,000 compounds, about 14,000 (4.5%) showed an effect of 50% or more. The effect is printed as a negative number. The list shows a part of the results.
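Also: peak tail current of the secondary pulse compared with the same well before compound.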

This experiment deals with human ether-à-go-go-related gene (hERG) potassium channel (human, UniProt Q12809). In words: primary screen, population patch clamp on CHO cells stably expressing hERG.
Chain of human ether-à-go-go-related gene (hERG) potassium channel (Q12809 whole entry, looked up): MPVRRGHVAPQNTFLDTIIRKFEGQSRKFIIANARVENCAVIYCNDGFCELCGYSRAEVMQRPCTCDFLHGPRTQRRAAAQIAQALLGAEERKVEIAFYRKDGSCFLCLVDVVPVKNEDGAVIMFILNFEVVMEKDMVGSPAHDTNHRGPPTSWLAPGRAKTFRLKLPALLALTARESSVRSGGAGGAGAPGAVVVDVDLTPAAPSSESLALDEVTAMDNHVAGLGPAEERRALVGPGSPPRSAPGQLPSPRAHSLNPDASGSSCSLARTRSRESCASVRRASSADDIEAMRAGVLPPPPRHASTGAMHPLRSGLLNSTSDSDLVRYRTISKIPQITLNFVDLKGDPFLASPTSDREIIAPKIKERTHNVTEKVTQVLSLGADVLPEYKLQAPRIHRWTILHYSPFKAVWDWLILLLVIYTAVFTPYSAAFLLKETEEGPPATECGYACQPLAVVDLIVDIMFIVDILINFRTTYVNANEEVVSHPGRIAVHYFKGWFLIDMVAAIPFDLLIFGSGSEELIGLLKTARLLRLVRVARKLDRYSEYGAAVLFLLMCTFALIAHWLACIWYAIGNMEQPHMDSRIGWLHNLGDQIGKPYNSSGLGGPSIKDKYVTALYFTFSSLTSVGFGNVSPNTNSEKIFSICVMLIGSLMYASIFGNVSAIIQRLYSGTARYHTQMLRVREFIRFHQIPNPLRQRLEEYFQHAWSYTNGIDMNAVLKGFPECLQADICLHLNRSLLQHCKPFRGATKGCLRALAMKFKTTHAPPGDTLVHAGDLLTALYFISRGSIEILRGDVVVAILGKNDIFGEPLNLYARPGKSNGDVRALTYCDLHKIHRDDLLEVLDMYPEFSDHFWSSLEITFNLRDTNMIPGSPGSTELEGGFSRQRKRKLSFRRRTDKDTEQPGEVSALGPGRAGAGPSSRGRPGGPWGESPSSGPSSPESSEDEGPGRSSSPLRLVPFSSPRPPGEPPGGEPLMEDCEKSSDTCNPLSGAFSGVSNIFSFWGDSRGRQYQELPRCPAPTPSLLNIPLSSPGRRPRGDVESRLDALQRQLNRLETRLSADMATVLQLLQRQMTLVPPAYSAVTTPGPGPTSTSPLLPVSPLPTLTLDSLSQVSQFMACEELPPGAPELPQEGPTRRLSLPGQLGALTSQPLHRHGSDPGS
For `CC1(C)C=C(c2ccc(C(=O)O)s2)CC(C)(C)N1.Cl`, the “hERG current change (%, negative = inhibition) at 10uM” value is 5.49%.

As for `COc1ccc(NC(=O)c2ccc3ccccc3c2OC)cc1`, the “hERG current change (%, negative = inhibition) at 10uM” value is given as -13.1%.

Take `Cc1ccc(-c2ncccc2OC(=O)C23CC4CC(CC(C4)C2)C3)cc1.Cl`: the “hERG current change (%, negative = inhibition) at 10uM” value was 12%.

On to `Cc1ccc(S(=O)(=O)c2c(O)c3ccc(C(=O)O)cc3[nH]c2=O)cc1`, for which the “hERG current change (%, negative = inhibition) at 10uM” value is recorded as 16.1%.

In the case of `CC1(C)C2CC=C(CN3CCC(O)CC3)C1C2` (centres unmarked), the “hERG current change (%, negative = inhibition) at 10uM” value is -7.45%.

For the compound `COc1ccc(C(=O)Nc2ccc(-n3nncc3C(C)(C)C)cc2)cc1`, the “hERG current change (%, negative = inhibition) at 10uM” value is recorded as -26.4%.

Turning to `O=C(Nc1cccc(F)c1)N1CCN(C(=O)c2ccco2)CC1`, the “hERG current change (%, negative = inhibition) at 10uM” value was -10.4%.

Turning to `Cc1noc(NS(=O)(=O)c2ccc(NC(=O)C34CC5CC(C3)CC(n3cnc(Cl)n3)(C5)C4)cc2)c1C`, the “hERG current change (%, negative = inhibition) at 10uM” value was -10.4%.

As to `CCn1cc(C(=O)NCc2ccc3c(c2)OCO3)c(=O)c2cc(F)c(N3CCN(C)CC3)cc21`, the “hERG current change (%, negative = inhibition) at 10uM” value is recorded as -37.2%.

`CCC(OC(=O)c1nsc(Cl)c1Cl)C(=O)NC(C)(C)C` (centres unmarked): the “hERG current change (%, negative = inhibition) at 10uM” value is on record as 14.1%.

Turning to `O=C(CN1CCN(S(=O)(=O)/C=C/c2ccccc2)CC1)Nc1ccccc1N1CCOCC1`, the “hERG current change (%, negative = inhibition) at 10uM” value is listed as -42.4%.

`O=c1[nH]c2cccnc2n1-c1cccc([N+](=O)[O-])c1`: the “hERG current change (%, negative = inhibition) at 10uM” value was determined as 4.58%.

For the compound `CN(CCOc1ccccc1)C(=O)CNC(=O)c1ccc(C(C)(C)C)cc1`, the “hERG current change (%, negative = inhibition) at 10uM” value is -33.9%.

With `COc1cccc(NC(=O)CN(C)C(=O)c2ccc(NC3CC3)c([N+](=O)[O-])c2)c1`, the “hERG current change (%, negative = inhibition) at 10uM” value is on record as -73.4%.

As for `O=C(NCC(=O)N1CCCC(C(F)(F)F)C1)c1ccccc1F` (centres unmarked), the “hERG current change (%, negative = inhibition) at 10uM” value is listed as 8.85%.

Regarding `Cc1cc(-c2ccccc2)n2nc(N)nc2n1`, the “hERG current change (%, negative = inhibition) at 10uM” value stood at 8.73%.

As for `CS(=O)(=O)N1CCCC(C(=O)NCc2ccccn2)C1` (centres unmarked), the “hERG current change (%, negative = inhibition) at 10uM” value amounted to 0.263%.

Regarding `CCOC(=O)c1cccc(NC(=O)CSc2nnnn2C)c1`, the “hERG current change (%, negative = inhibition) at 10uM” value is reported as 7.1%.

Turning to `CCOC(=O)C1=NN(c2ccc(Cl)cc2)C(=O)C1`, the “hERG current change (%, negative = inhibition) at 10uM” value is listed as 15.1%.

Regarding `O=S(=O)(c1ccc(F)c(F)c1F)N1CCN(C(=S)Nc2ccccc2)CC1`, the “hERG current change (%, negative = inhibition) at 10uM” value was -1.14%.

As to `O=C1[C@@H]2C(c3ccc(F)cc3)=NO[C@@H]2C(=O)N1Cc1ccccc1`, the “hERG current change (%, negative = inhibition) at 10uM” value was 13%.

In the case of `O=c1[nH]c(=O)n(-c2ccc(Br)cc2)c(O)c1C=NC(CO)(CO)CO`, the “hERG current change (%, negative = inhibition) at 10uM” value was found to be 4.25%.

`CCn1c(-c2ccc(C(C)(C)C)cc2)n[nH]c1=S`: the “hERG current change (%, negative = inhibition) at 10uM” value is on record as 13.7%.

In the case of `Cc1cccc(-c2cnn(-c3ccccc3)c2N)c1`, the “hERG current change (%, negative = inhibition) at 10uM” value worked out at 11.2%.

As to `Cc1sc(N2C(=O)C3C(C2=O)[C@H]2C=C[C@@H]3C2)c(C#N)c1C` (some centres unmarked), the “hERG current change (%, negative = inhibition) at 10uM” value is on record as 0.8%.

For the compound `Cc1cccc(N2C(=O)c3cccc4c(N)ccc(c34)C2=O)c1`, the “hERG current change (%, negative = inhibition) at 10uM” value is listed as 0.393%.

For the compound `Cc1nc2cc(C(=O)OCC(=O)NC(C)C(C)C)ccc2n1-c1ccccc1` (centres unmarked), the “hERG current change (%, negative = inhibition) at 10uM” value was -24.9%.

Turning to `COc1ccc(C(=O)NCC(=O)OCC(=O)c2ccc3c(c2)NC(=O)CO3)cc1`, the “hERG current change (%, negative = inhibition) at 10uM” value is on record as -65.1%.

On to `O=C(CSc1nnc(CNC(=O)c2ccco2)o1)Nc1cccc(C(F)(F)F)c1`, for which the “hERG current change (%, negative = inhibition) at 10uM” value is given as -48.3%.

With `COc1ccc(NC(=O)COc2ccc(/C=C/c3cccc[n+]3C)cc2OC)cc1.[I-]`, the “hERG current change (%, negative = inhibition) at 10uM” value is listed as 10.6%.

Turning to `COc1ccccc1CC(=O)N(Cc1ccccc1)c1cccc(C)c1`, the “hERG current change (%, negative = inhibition) at 10uM” value is reported as -2.79%.

Turning to `COc1ccc(NC(=O)CS(=O)CC(=O)NCC2OCCc3ccccc32)cc1` (centres unmarked), the “hERG current change (%, negative = inhibition) at 10uM” value is reported as 16.2%.

Regarding `Cc1nc2ccccc2c(=O)n1CCCn1ccnc1`, the “hERG current change (%, negative = inhibition) at 10uM” value is recorded as -17%.

Take `CCOC(=O)N1CCN(C(=O)CS(=O)Cc2nc(-c3ccc(OC)c(OC)c3)oc2C)CC1` (centres unmarked): the “hERG current change (%, negative = inhibition) at 10uM” value amounted to 2.5%.

With `CC(C)(C)c1ccc(OC(=O)c2cccnc2)cc1`, the “hERG current change (%, negative = inhibition) at 10uM” value is recorded as -7.01%.

On to `Cc1cc(NCc2ccco2)n2ncnc2n1`, for which the “hERG current change (%, negative = inhibition) at 10uM” value is 4.39%.

With `COC(=O)C1=C(C)N(c2cccc(OC)c2)C(=O)/C1=C\c1ccco1`, the “hERG current change (%, negative = inhibition) at 10uM” value is -26.5%.

In the case of `COC(=O)/C=C/C(=O)NCc1ccco1`, the “hERG current change (%, negative = inhibition) at 10uM” value came out at 10%.

For `COC(=O)COc1ccc(S(=O)(=O)Nc2ccc3c(c2)OCO3)cc1Cl`, the “hERG current change (%, negative = inhibition) at 10uM” value is recorded as -1.46%.

Take `COc1ccccc1C(=O)NNC(=O)c1sccc1-n1cccc1`: the “hERG current change (%, negative = inhibition) at 10uM” value amounted to 28.5%.

Consider `COC(=O)C(C(=O)OC)=C(/C=C/C=C/N(C)C)N(C)C`, for which the “hERG current change (%, negative = inhibition) at 10uM” value came out at 13.9%.

Regarding `CCOc1ccc(CNC(c2ccccc2)c2ccccc2)cc1.Cl`, the “hERG current change (%, negative = inhibition) at 10uM” value is given as 1.68%.

As to `CC1c2nc3ccccc3n2C(CC(=O)NCCCN2CCOCC2)C(=O)N1Cc1ccccc1` (centres unmarked), the “hERG current change (%, negative = inhibition) at 10uM” value is listed as -5.92%.

In the case of `COc1cc(CNc2ccc(N3CCOCC3)cc2)ccc1OCC(=O)NC(C)(C)C`, the “hERG current change (%, negative = inhibition) at 10uM” value stood at 14.6%.

Regarding `CC(=O)NC1(C(F)(F)F)NC(=O)N(CCc2ccccc2)C1=O` (centres unmarked), the “hERG current change (%, negative = inhibition) at 10uM” value is -3.4%.

Take `CCCS(=O)(=O)c1nc(S(=O)(=O)c2ccc(C)cc2)c(N2CCC(O)CC2)s1`: the “hERG current change (%, negative = inhibition) at 10uM” value is on record as -16.4%.

As for `COC(=O)C1=C(C)N(CCCC(=O)O)C(=O)NC1c1cccc(Cl)c1Cl` (centres unmarked), the “hERG current change (%, negative = inhibition) at 10uM” value was found to be 0.17%.

With `CCn1c(CSc2nc(C)cc(C)n2)nnc1SCC(=O)Nc1cccc2ccccc12`, the “hERG current change (%, negative = inhibition) at 10uM” value is listed as -4.98%.

As for `CCOC(=O)C1CCN(c2cc(C)nc3ccc(OC)cc23)CC1`, the “hERG current change (%, negative = inhibition) at 10uM” value is reported as -73.8%.

As for `O=[N+]([O-])c1ccc(S(=O)(=O)NCCS(=O)(=O)N2CCN(c3ccccc3)CC2)cc1`, the “hERG current change (%, negative = inhibition) at 10uM” value was -24.8%.

With `CC(C)Oc1ccc(S(=O)(=O)N2CCOCC2)cc1NC(=O)c1ccc(N2CCCC2=O)cc1`, the “hERG current change (%, negative = inhibition) at 10uM” value is reported as 2.04%.

For `O=c1cc(CN2CCN(Cc3ccccc3)CC2)c2cc(O)ccc2o1`, the “hERG current change (%, negative = inhibition) at 10uM” value was -68.2%.

Consider `COc1ccc(C)cc1NC(=O)CC(O)(C(F)(F)F)C(F)(F)F`, for which the “hERG current change (%, negative = inhibition) at 10uM” value came out at 1.84%.

As to `COCCOC(=O)C1=C(C)NC2=C(C(=O)CC(c3cccs3)C2)C1c1ccsc1` (centres unmarked), the “hERG current change (%, negative = inhibition) at 10uM” value is given as 5.12%.

Turning to `COCC(=O)N(C)CC1CCCN(CCc2ccccc2OC)C1` (centres unmarked), the “hERG current change (%, negative = inhibition) at 10uM” value is given as 7.26%.

For `Nc1sc(-c2ccccc2)n[n+]1Cc1cccc2cccnc12.[Br-]`, the “hERG current change (%, negative = inhibition) at 10uM” value is on record as -66.7%.
